Laboratory results reported in PubChem BioAssay AID743279 (National Center for Advancing Translational Sciences (NCATS), 2014).
The campaign covered roughly 360,000 compounds. About 17,000 (4.7%) were called active. Inconclusive means that the source gave no clear call. Such entries were picked first, then a sample of the others. No stated cut-off is given here; in the data, active means activity change below about -50%; inconclusive means mostly about -30% to -49%; inactive means weaker than that.

Assay: qHTS for Inhibitors of Inflammasome Signaling: IL-1-beta AlphaLISA Primary Screen
Conditions: THP-1 LPS/ATP IL-1B secretion, 16 h; at 57.5 µM, active compounds read low
Procedure, shortened: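 THP-1 cells pretreated 1 hr with compounds (up to 57.5 uM final), then stimulated with LPS (250 ng/mL final) plus ATP (1.25 mM final); secreted IL-1B measured by AlphaLISA after 16 hr, decreased signal indicating inhibition.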
On the % scale 0 is the no-effect control and ±100 the full control effect.

Q: Which activity change does the source give for `CCOC(=O)c1c(NC(=O)c2ccn(CC)n2)sc2c1CCC2` here?
A: The activity change was inconclusive: -42.5%.

Q: With `COc1cc(Br)c(CC(=O)NNC(=O)c2ccc(F)cc2)cc1OC` as the compound, how does the activity change read?
A: Its activity change is inactive: 4.54%.

Q: For `Cc1cc(C)nc(NNS(=O)(=O)c2ccc(Cl)cc2)n1`, which activity change is on record?
A: Its activity change is inactive: 8.52%.

Q: For `Cc1ccc(OCC(COCc2ccccc2)NC(C)C)cc1` (stereo not drawn), which activity change is on record?
A: The activity change was inconclusive: -42.9%.

Q: For `O=C(NC1CC1)c1ccc2c(c1)C1C3CCC(C3)C1C(c1ccccc1)N2` (stereo not drawn), which activity change is on record?
A: The activity change was inconclusive: -31.3%.

Q: With `COc1cccc(Nc2nc(NCC3CCCO3)c3ccccc3n2)c1` (stereo not drawn) as the compound, how does the activity change read?
A: The activity change was active: -122%.

Q: Which activity change does the source give for `O=C(C1=C[C@H](c2ccc(C(F)(F)F)cc2)C[C@H](OCCCCO)O1)N1CCOCC1` here?
A: The activity change was inconclusive: -35.5%.

Q: For `COc1ccc(N2CCN(C(=O)c3ccc(N4C(=O)NC5CC4(C)Oc4ccccc45)cc3)CC2)cc1` (stereo not drawn), which activity change is on record?
A: The activity change was inconclusive: -36.7%.

Q: For `COc1ccc(S(=O)(=O)N(C)C)cc1NC(=O)COC(=O)C1CC1`, which activity change is on record?
A: The activity change was inactive: 0%.

Q: With `CC(=O)Nc1ccc2c(c1)Cc1c-2cc(Br)c(N)c1Br` as the compound, how does the activity change read?
A: Its activity change is inactive: 17.2%.

Q: Which activity change does the source give for `COC(=O)c1cn(NC(=O)c2cccc(N(C)C)c2)c(=O)c2ccccc12` here?
A: Its activity change is inconclusive: -42.1%.

Q: For `NCc1csc(Nc2cc(Oc3ccccc3)ncn2)n1`, which activity change is on record?
A: Its activity change is inactive: 12.1%.

Q: For `CC(C)CN(C(=O)COC(=O)Cc1c[nH]c2ccccc12)c1c(N)n(Cc2ccccc2)c(=O)[nH]c1=O`, which activity change is on record?
A: Its activity change is inactive: -8.59%.

Q: Which activity change does the source give for `C[C@@H](NCCCn1ccc(NC(=O)OCc2ccccc2)nc1=O)c1cccc2ccccc12` here?
A: The activity change was inconclusive: -38.5%.

Q: With `COC(=O)c1ccc(OCC2c3cc(OC)c(OC)cc3CCN2C(=O)C2CC2)cc1` (stereo not drawn) as the compound, how does the activity change read?
A: The activity change was inconclusive: -31.7%.

Q: For `O=C(NN1C(=O)c2ccccc2NC1c1ccccc1OCc1ccccc1)c1ccncc1` (stereo not drawn), which activity change is on record?
A: Its activity change is inactive: -9.7%.

Q: For `O=C(NCCO)c1ccccc1O`, which activity change is on record?
A: Its activity change is inactive: -1.46%.

Q: With `C[C@@H]1CN([C@@H](C)CO)C(=O)c2cc(Br)cnc2O[C@H]1CN(C)Cc1cccc(C(=O)O)c1` as the compound, how does the activity change read?
A: Its activity change is inactive: 7.09%.

Q: For `O=C(c1cccs1)N1CCc2c([nH]c3ccccc23)C1c1ccccn1` (stereo not drawn), which activity change is on record?
A: Its activity change is inconclusive: -30.6%.

Q: Which activity change does the source give for `O=[N+]([O-])c1ccc(/C=N/Nc2nc(N3CCCCCC3)nc(N3CCCCCC3)n2)o1` here?
A: The activity change was inconclusive: -42.4%.

Q: Which activity change does the source give for `CCCCn1c(SCC(=O)/C(C#N)=C(\C)N)nc2ccccc2c1=O` here?
A: The activity change was inconclusive: -31.1%.

Q: Which activity change does the source give for `CC(C)(C)OC(=O)CNC(=O)c1[nH]cnc1C(=O)NC(c1ccccc1)c1ccccc1` here?
A: The activity change was inconclusive: -32.8%.

Q: For `CCc1ccc(C2=CC(c3cc(Br)ccc3F)n3ncnc3N2)cc1` (stereo not drawn), which activity change is on record?
A: Its activity change is inconclusive: -39.7%.
